Reference: the RNAGym collection of RNA variant scans (doi:10.1073/pnas.2313332121)
Variants at the floor of the assay are shown more often than the library holds them.

B1: TPR 5TU (parent)
chain: GGAUCUUCUCGAUCUAACAAAAAAGACAAAUCUGCCACAAAGCUUGAGAGCAUCUUCGGAUGCAGAGGCGGCAGCCUUCGGUGGCGCGAUAGCGCCAACGUUCUCAACUAUGACACGCAAAACGCGUGCUCCGUUGAAUGGAGUUUAUCAUG

Variants of: B1
Test: polymerase ribozyme fitness, log enrichment relative to wild type (log ratio); higher = more active; in vitro selection for triplet polymerase activity
Outline: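 Mutant libraries for each subunit of a heterodimeric triplet polymerase ribozyme were made by PCR and then transcribed. Each library underwent one round of in vitro selection in triplicate: annealing with a biotinylated primer, the partner subunit and triplets, frozen incubation at −7 °C, gel excision of extended constructs, streptavidin-bead capture and RT-PCR. Input and output libraries were Illumina-sequenced, and only genotypes with ≥10 input reads and ≥1 read per output were kept. Fitness is the logarithm, base 2, of genotype enrichment over wild-type enrichment, computed from inverse-variance-weighted replicate averages.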

Variant | polymerase ribozyme fitness (log ratio)
A24U A41C U44A G58C G80C G94U U151C | ≤ -4.2
A24C C75A C76A C95U A120U | ≤ -4.2
A24U C99A G133U G143C U146G | ≤ -4.2
A24G G71C C79G C85A G124U U130G U148C | ≤ -4.2
A24U C27U C36U G58C G83A G112U A121G G124C | ≤ -4.2
A24G G62U C85U U146A | ≤ -4.2
A24U A49C A52C G62A C87A C105U | ≤ -4.2
A24G C38G A40U G84C U90G G141A | ≤ -4.2
A24C A28G U53A U134A | ≤ -4.2
A24C G42C G48C G88A C93A G141U | ≤ -4.2
A24G A47U A89U A98U U144A A150G | ≤ -4.2
A24U G88C U139C U144C | ≤ -4.2
A24U U56A C72G C96U A122C A137G | ≤ -4.2
A24G C36A G50A U77A G84A | ≤ -4.2
A24C G34A G48C U78C G136U | ≤ -4.2
A24C G67C C87U A122U A142G | ≤ -4.2
A24U G67A G68A A91U C96G A98G C105U A113G C114G | ≤ -4.2
A24C A26C G58A G74A C85G U139C G141A G143A | ≤ -4.2
A24U G58A G88U | ≤ -4.2
A24C C27G C36A C95U C99U G124U C129G | ≤ -4.2
A24U A39U A66C G83A A113U G152A | ≤ -4.2

Variant | polymerase ribozyme fitness (log ratio)
A24C A73G G86U C99G C149G | ≤ -4.2
A24C U55A A73U A98G U109C U135A G140U | ≤ -4.2
A24G C76A C85A A110C C131G | ≤ -4.2
A24U A26C A28U G65A G68A G92U G136A | ≤ -4.2
A24G A26U A40C U44A G80C | ≤ -4.2
A24G A60U C75G G133U U145G | ≤ -4.2
A24U A26U C93G C99U | ≤ -4.2
A24U A37U G42C C75G | -3.99
A24C A40U G94A C116A | ≤ -4.2
A24C C118U C129G | ≤ -4.2
A24G U44A A89U A91G A107U | ≤ -4.2
A24G A40C A52G C54G C85A C96U C99G | ≤ -4.2
A24G G25A G84A C125G G152A | ≤ -4.2
A24G G34C G70A G81U C95U C105A A147G | ≤ -4.2
A24C G42C G94U U101C U144C | ≤ -4.2
G25A C35U U56A A60C C85A C93U A106C | ≤ -4.2
A24U G94U C96A U102C C125G C131A G140C | ≤ -4.2
A24G A37G A39U A137G G143U | ≤ -4.2
A24C A30G U55A G88U C105U U134C U144C | ≤ -4.2
A24U C63G U151G | ≤ -4.2
A24U G83U G136A U146C A150G | -3.59

Variant | polymerase ribozyme fitness (log ratio)
A24U A52G G68U G80A U102A | ≤ -4.2
A24U C76G G81C A91G C96A C116G G117U U130G C131U U148G | ≤ -4.2
A24U A30U U77G G94A A107C A115C C118A U148A | ≤ -4.2
A23U U44A U55A A122U | ≤ -4.2
A24U C35U A60C G84A A91U U101C A106C C132G | ≤ -4.2
A24G C27A U61A U78C C103U C114U | ≤ -4.2
A24U G25U A60C G62A C85A C99G C103A | ≤ -4.2
A24U G80C G86A G136U | ≤ -4.2
A24U C57G C72U C129U U135A U144C | ≤ -4.2
A24U A97U U104C A107G C132U | ≤ -4.2
A24U C38A A49U C72A G83A A91G C96A G141A | ≤ -4.2
A24C U33G U55A G92A U135A | ≤ -4.2
A24C C75G A107U | ≤ -4.2
G25A C27U G34U U53A G86A C132G | ≤ -4.2
A24U C38G G71A A91G C93U C99U | ≤ -4.2
A24C A30U G48C C96U | ≤ -4.2
A24U A49C G58A U61A G88U A98G A110U G141U | ≤ -4.2
A24G A47G G48U C57U A64C G67A C75G C87U C96G C108G A113C G133C | ≤ -4.2
A24U C51A U53A A89U C93G C96G C123A | ≤ -4.2
A24G A52G G84A C87G A98U C108U C118U G133U | ≤ -4.2
A24G G48U C54A G92C G141A U151A | ≤ -4.2

Variant | polymerase ribozyme fitness (log ratio)
A24U U56A A73G C131G | ≤ -4.2
A24U C75U G83A C95U A110G C125U A150C | ≤ -4.2
A24G G50A C72U G88C | ≤ -4.2
A24U A39U C57G G88C G128C U148A | ≤ -4.2
A24U A40U A66G C79A C85U G117C | ≤ -4.2
A24U C54G U56G C93A G100U C131A U134G | ≤ -4.2
A24U A26U G34A G88C A138U | ≤ -4.2
A23U U45A U53A A60G C76A G83U C85A C87G C114G C118U A122G | ≤ -4.2
A24U G88C C95G C123G | ≤ -4.2
G25A A39U G92C C123U U144A | ≤ -4.2
A24U C35G C36U G68A C93A C131U | ≤ -4.2
A24U U90G U102A | ≤ -4.2
A23U G140C | ≤ -4.2
A24G A52C G68A U151G | ≤ -4.2
A24U G62A C79G | ≤ -4.2
A24C A49G C79G G86A A107U | ≤ -4.2
A24U G59A G88U C99G C118A U135A | ≤ -4.2
A24U G42C G67U C87G C99A | ≤ -4.2
A24U A29U C57U A66C C95A | ≤ -4.2
A24U A91G G94A A97G C116A | ≤ -4.2
A24G U56A C85U U102G U146C | ≤ -4.2
